This note sets out measurements from ChEMBL document CHEMBL4888484, “Replenishing the malaria drug discovery pipeline: Screening and hit evaluation of the MMV Hit Generation Library 1 (HGL1) against asexual blood stage Plasmodium falciparum ,using a nano luciferase reporter read-out” (2022).

The campaign covered roughly 150,000 compounds. About 540 (0.36%) showed an effect of 50% or more. Some of the results follow.

This experiment deals with Plasmodium falciparum. The experiment can be described thus: Primary screen in NF54 nanoGlo assay, in single point, at 2uM, 72h; a lower Z score goes with more inhibition. The format is functional, Erythrocyte. The following applies: timepoint 72 hour.
Usually % Inhibition stands for the relative decrease from the control value, in per cent. For the molecule `Cc1nn(C)c(C)c1C[C@H](C)C(=O)N1CCc2nc[nH]c2C12CCC2`, the “% Inhibition” value was 6% and the Z score was -0.63.
With `CC(C)n1nccc1CN[C@H]1CCc2ccccc2OC1`, the “% Inhibition” value is reported as -9% and the Z score stood at 1.38.
As for `CCN(CC(F)(F)F)C(=O)N[C@H](C(=O)O)c1ccccc1`, the “% Inhibition” value is reported as 4% and the Z score was -0.55.
`COc1ccccc1-n1nc(CC(C)C)nc1Cc1c(C)[nH][nH]c1=O`: the “% Inhibition” value was -8% and the Z score came to 1.29.
The corresponding values for `COc1ccccc1-c1nc(C)nc(N2CCCC2)c1N` are -6% and 1.09.
The like results for `Cc1ccc(C)c(S(=O)(=O)Oc2ccccc2C(=O)OCC(=O)N(CCC#N)c2ccccc2)c1` were, in that order, -14% and 1.53.
The corresponding values for `NC(=O)c1cc(N)c(Cl)cc1Cl` are -15% and 2.95.
With `Cc1ccc(OCc2ccc(Cl)cn2)c(CO)n1`, the “% Inhibition” value is listed as -6% and the Z score is 0.62.
The corresponding values for `CC(=O)N1CCCN(C(=O)C[C@H]2CCc3ccccc3C2)CC1` are 11% and -1.76.
For the molecule `CN(C)CC[C@H]1CN(Cc2nc(-c3ccccc3)cs2)CCO1`, the “% Inhibition” value is on record as -5% and the Z score was 0.76.
Consider `CS(=O)(=O)c1ccc([C@H]2CC(O)=Nc3c2c(=O)[nH]n3C2CCCCCCC2)cc1`, for which the “% Inhibition” value is listed as -3% and the Z score was 0.47.
The corresponding values for `CO[C@H]1COC[C@H]1Nc1ccnc2c1c(C)nn2C` are 10% and -1.3.
The corresponding values for `COc1cccc(CCN2CC(=O)N3CC[C@@H](O)C[C@H]3C2=O)c1` are -1% and 0.25.
`CNC(=O)N1CCC(Cc2ncc(C)n2Cc2ccc(F)cc2)CC1`: the “% Inhibition” value is -11% and the Z score amounted to 1.59.
Regarding `CCCS(=O)(=O)N(C)CC(=O)N1CCC[C@H]1c1cccs1`, the “% Inhibition” value is -6% and the Z score was determined as 0.89.
For the molecule `Cc1cncc(NCc2cnc(N3CCOCC3)nc2)c1`, the “% Inhibition” value is listed as -2% and the Z score was 0.25.
Take `c1coc([C@@H]2CN(CCCc3ccc4c(c3)CCO4)CCO2)c1`: the “% Inhibition” value is recorded as -4% and the Z score was determined as 0.36.
As to `CCc1onc(C)c1[C@@H]1CCCN1Cc1ccc(OC)c(CN2CCOCC2)c1`, the “% Inhibition” value is listed as -3% and the Z score is 0.45.
The like results for `O=C(CCCn1cccn1)N1CCC[C@H]1c1cccc(Cl)c1` were, in that order, 3% and -0.46.
As for `O=S(=O)(CCC1CC1)Nc1ccc(Cl)cn1`, the “% Inhibition” value was -2% and the Z score was found to be 0.2.
With `NC(=O)CCn1cc(-c2csc3ccccc23)cn1`, the “% Inhibition” value came out at 0% and the Z score is -0.07.
`O=C(c1cc(=O)[nH]c2c1CCCC2)N1CCN[C@H](c2cn[nH]c2)C1`: the “% Inhibition” value is 1% and the Z score is recorded as -0.13.
As for `Cn1nc(-c2ccccc2)c(CN(CC2CC2)C[C@H](O)COC(C)(C)C)c1Oc1ccc(F)cc1F`, the “% Inhibition” value is recorded as 7% and the Z score was -0.91.
As for `CCN(Cc1noc(C)n1)Cc1nnc(C(C)C)o1`, the “% Inhibition” value was -19% and the Z score turned out to be 3.23.
With `COc1ncccc1[C@H]1CCN(C(=O)c2c(Cl)cnn2C)C1`, the “% Inhibition” value is recorded as -13% and the Z score worked out at 2.39.
The like results for `COc1ccc2[nH]cc([C@H]3C(NC(=O)c4ccc(Cl)cc4)=C(C)Nc4ncnn43)c2c1` were, in that order, 4% and -0.6.
In the case of `COc1ccc(N2CCN(C(=O)C(=O)Nc3cc(Cl)ccc3OC)CC2)cc1`, the “% Inhibition” value is reported as -2% and the Z score is on record as 0.39.
As to `CCCN(CC1CC1)C(=O)[C@@H]1CC2(CN(Cc3ccccc3)C2)CN1C`, the “% Inhibition” value is -5% and the Z score came out at 0.54.
`COc1ccc(CN2CCN(CC3CC3)[C@@H]3CS(=O)(=O)C[C@@H]32)cc1O`: the “% Inhibition” value is given as -13% and the Z score came to 1.76.
The corresponding values for `O=S(=O)(Nc1ccccc1Oc1ccncc1)c1cccnc1` are 20% and -2.51.
With `O=C(NC[C@H]1C[C@@H]1C1CCC1)N1CC(OCC(F)F)C1`, the “% Inhibition” value is recorded as -8% and the Z score is given as 0.82.
On to `O=C(Nc1ccc(Cl)cc1)c1cnn2c(=O)c3c([nH]c12)CCC3`, for which the “% Inhibition” value was -10% and the Z score amounted to 1.3.
In the case of `CC(C)CC[C@@]1(C2CC2)NC(=O)N(Cc2cnsn2)C1=O`, the “% Inhibition” value stood at 18% and the Z score is given as -2.11.
Regarding `C[C@](C#N)(NC(=O)Cn1nnc(-c2ccco2)n1)C1CC1`, the “% Inhibition” value is given as -16% and the Z score is 1.48.
As to `COCc1noc(C[C@H]2CN(C(=O)Cc3sc(C)nc3C)CCO2)n1`, the “% Inhibition” value is on record as -6% and the Z score is 1.12.
Consider `COc1ccc(S(=O)(=O)N(C)Cc2c(C)noc2C)cc1`, for which the “% Inhibition” value is recorded as -7% and the Z score was found to be 1.06.
In the case of `COCCOCCOc1ccc(COc2ccccc2CC(N)=O)cc1`, the “% Inhibition” value worked out at 2% and the Z score is -0.26.
The corresponding values for `Cc1[nH]c2c(F)cccc2c1CC(=O)N[C@H]1C[C@@H](c2cc(=O)[nH]c(N)n2)C1` are -12% and 1.32.
As to `COc1ccc(C(=O)Nc2ccc(-c3c(C4CC4)nn(-c4ccccc4)c3OC(C)=O)cc2)cc1`, the “% Inhibition” value was found to be 2% and the Z score is recorded as -0.19.
The corresponding values for `O=C(Nc1nc(-c2ccccc2Cl)ns1)N1CCO[C@@H](CO)C1` are -7% and 1.31.
As for `Cc1nc(N(C)C)sc1C(=O)Nc1ccc2c(c1)OCCO2`, the “% Inhibition” value worked out at 1% and the Z score is -0.23.
On to `CCc1nc(-c2cc(S(=O)(=O)NC3CCCCCC3)c(C)s2)cs1`, for which the “% Inhibition” value stood at 9% and the Z score is given as -1.03.
